{"source": "PubChem BioAssay AID1347073", "about": "(National Center for Advancing Translational Sciences (NCATS), 2019)", "note": "Among all 45,000 compounds or so, about 200 (0.44%) were called active. Roughly 7% stayed inconclusive and do not appear here. Calls come from the whole dose curve; as a rule, active = well fitted activation curve with a large enough effect; inconclusive = small, poorly fitted or top-dose-only effect; inactive = no such curve, though single readings can be large or run the other way. Some of the results follow."}
{"assay": "qHTS of TDP-43 Inhibitors: NCGC Sytravon Library Screen; note: 0% is about no effect; nearly all actives have a fitted effect of over 55% in size", "settings": "yeast TDP-43 toxicity rescue, BacTiter-Glo growth, 24 h; series mostly up to 46.1 µM; growth rescue (activation): at the top concentration", "method_in_brief": "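TDP-43-expressing yeast, pregrown in raffinose, seeded at OD600 0.02 in galactose medium with compound for 24 hr at 30 deg C. Growth read by BacTiter-Glo luminescence, so rescue of toxicity appears as activation.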"}
{"smiles": "COc1ccccc1Cn1c(=O)c2ccccc2n2c(SCC(=O)N3CCCCC3)nnc12", "growth rescue (activation)": "inactive: 20.4%"}
{"smiles": "CC(=O)NS(=O)(=O)c1ccc(NC(=O)c2cc3c(=O)n4ccccc4nc3s2)cc1", "growth rescue (activation)": "inactive: -17.3%"}
{"smiles": "O=C(/C=C/c1ccc(S(=O)(=O)N2CCOCC2)cc1)NC(=S)NCCCn1ccnc1", "growth rescue (activation)": "inactive: 15.8%"}
{"smiles": "Cc1ccc(NC(=O)COC(=O)/C=C/c2c(C)nn(-c3ccc(F)cc3)c2Cl)cc1F", "growth rescue (activation)": "inactive: 19.4%"}
{"smiles": "CCOc1ccccc1NC(=O)C(NCCN(C)C)c1ccccc1", "note": "(stereo not drawn)", "growth rescue (activation)": "inactive: -3.23%"}
{"smiles": "CNc1ncc(C(=O)C(C)(C)C)s1", "growth rescue (activation)": "inactive: 14.3%"}
{"smiles": "Cc1ccc2nc(C)cc(C(=O)N3CCCC(CO)(Cc4ccccc4C)C3)c2c1", "note": "(stereo not drawn)", "growth rescue (activation)": "inactive: -1.2%"}
{"smiles": "O=C(Cn1ncc(Cl)c(Cl)c1=O)N1CCN(S(=O)(=O)c2ccc3ccccc3c2)CC1", "growth rescue (activation)": "inactive: 2.46%"}
{"smiles": "CN=C1S/C(=C\\c2ccc(N3CCOCC3)cc2C)C(=O)N1C", "growth rescue (activation)": "inactive: 31.5%"}
{"smiles": "Cc1csc(NC(=O)c2cc3c(s2)CCC3)n1", "growth rescue (activation)": "inactive: -24.7%"}
{"smiles": "O=C(c1cc(COc2ccc(F)c(F)c2)on1)N1CCSCC1", "growth rescue (activation)": "inactive: 37%"}
{"smiles": "Cc1ccc(Cl)cc1NC(=S)N1CCC(c2ccccc2)C1", "note": "(stereo not drawn)", "growth rescue (activation)": "inactive: 0.382%"}
{"smiles": "O=C(Nc1ccccc1N1CCCCC1)c1ccc(-c2cc(Cl)ccc2Cl)o1", "growth rescue (activation)": "inactive: 23.7%"}
{"smiles": "CCOP(=O)(OCC)C(Nc1ccc(F)cc1)c1ccccc1", "note": "(stereo not drawn)", "growth rescue (activation)": "inactive: 15.9%"}
{"smiles": "Cn1c(CC(=O)Nc2ccccc2F)nnc1SCC(=O)Nc1ccccc1Br", "growth rescue (activation)": "inactive: -8.12%"}
{"smiles": "CC(=O)c1ccc(N2CC(C)(C)C2=O)cc1", "growth rescue (activation)": "inactive: 7.66%"}
{"smiles": "Cc1ccc(C(=O)N2CC(=O)NC(=O)C2)cc1", "growth rescue (activation)": "inactive: -0.212%"}
{"smiles": "O=C(CCn1c2c(c3ccccc31)CCCC2)NNC(=O)c1ccc([N+](=O)[O-])cc1", "growth rescue (activation)": "inactive: 16.7%"}
{"smiles": "NS(=O)(=O)c1cc(C(=O)NCC2CCCCC2)ccc1Cl", "growth rescue (activation)": "inactive: 3.46%"}
{"smiles": "Clc1cc2c(cc1/C=N/Nc1nc(N3CCOCC3)nc(N3CCOCC3)n1)OCO2", "growth rescue (activation)": "inactive: 19.1%"}
{"smiles": "Cc1nn(CC(=O)N2CCN(c3ccccc3)CC2)c(C)c1[N+](=O)[O-]", "growth rescue (activation)": "inactive: -0.893%"}
{"smiles": "COc1ccc(C2Nc3cccc4cccc(c34)N2)cc1Br", "growth rescue (activation)": "inactive: 19.5%"}
{"smiles": "O=C(CSc1nc(NS(=O)(=O)c2ccccc2)cc(=O)[nH]1)Nc1ccccc1C(F)(F)F", "growth rescue (activation)": "inactive: 5.3%"}
{"smiles": "CCC(Oc1ccccc1)C(=O)Nc1ccccc1C(=O)N1CCN(C)CC1", "note": "(stereo not drawn)", "growth rescue (activation)": "inactive: 17.3%"}
{"smiles": "O=C(COC(=O)CNC(=O)c1ccccc1)Nc1ccc(S(=O)(=O)N2CCCC2)cc1", "growth rescue (activation)": "inactive: 1.25%"}
{"smiles": "CCOC(=O)c1sc(/N=C/Nc2nc(C)c(C(=O)OCC)s2)nc1C", "growth rescue (activation)": "inactive: -27.6%"}
{"smiles": "CCc1nc2ccc(C(=O)Nc3cccc(OCC(=O)N(C)C)c3)cn2c1N(CCN(C)C)CC1CC1", "growth rescue (activation)": "inactive: 7.47%"}
{"smiles": "CCN(CC)C(=S)NC(=O)Cc1ccccc1", "growth rescue (activation)": "inactive: -10.5%"}
{"smiles": "COc1cccc(NC(=O)C(Sc2nnc(-c3ccncc3)n2-c2ccc(Cl)cc2)c2ccccc2)c1", "note": "(stereo not drawn)", "growth rescue (activation)": "inactive: 16.8%"}
{"smiles": "Cc1ccc2c(C)c(C(=O)N(C)C(C)c3ccon3)oc2c1C", "note": "(stereo not drawn)", "growth rescue (activation)": "inactive: 21.1%"}
{"smiles": "COc1ccc(C(=O)C2CCCN(Cc3cccn3-c3ccccn3)C2)cc1F", "note": "(stereo not drawn)", "growth rescue (activation)": "inactive: 12.3%"}
{"smiles": "CC(=O)Nc1ccc(Oc2ncccn2)c(Cl)c1", "growth rescue (activation)": "inactive: 6.68%"}
{"smiles": "Cc1noc(C)c1COC(=O)c1ccc(S(=O)(=O)N2CCCCC2)cc1", "growth rescue (activation)": "inactive: 11.1%"}
{"smiles": "CC(OC(=O)c1ccccn1)C(=O)Nc1nc(-c2ccc(F)c(F)c2)cs1", "note": "(stereo not drawn)", "growth rescue (activation)": "inactive: 1.62%"}
{"smiles": "O=C(Nc1ccc(N2CCOCC2)c(S(=O)(=O)Nc2ccccc2Cl)c1)c1ccc(F)cc1", "growth rescue (activation)": "inactive: 2.14%"}
{"smiles": "CN1C(=S)SC(/[N+]([O-])=C/c2ccc(Cl)cc2)C1(C)C", "note": "(stereo not drawn)", "growth rescue (activation)": "inactive: 25.1%"}
{"smiles": "Nc1nnc(SCC(=O)Nc2nccs2)s1", "growth rescue (activation)": "inactive: -17.2%"}
{"smiles": "Cc1ccc(N(CC(O)CN2CCCC2)S(=O)(=O)c2ccc(C)cc2)cc1", "note": "(stereo not drawn)", "growth rescue (activation)": "inactive: -2.71%"}
{"smiles": "COc1cccc(CNS(=O)(=O)c2ccc3c(c2)oc(=O)n3C)c1", "growth rescue (activation)": "inactive: -30.5%"}
{"smiles": "O=C(COc1ccccc1Cl)NCCCNC(=O)c1ccccn1", "growth rescue (activation)": "inactive: 11.2%"}
{"smiles": "Cc1cnc(NC(=O)CC(C)c2ccccc2)s1", "note": "(stereo not drawn)", "growth rescue (activation)": "inactive: 1.61%"}
{"smiles": "COc1ccc(C2C(C#N)=C(/N=C/N3CCN(C)CC3)OC3=C2C(=O)CC(C)(C)C3)cc1", "note": "(stereo not drawn)", "growth rescue (activation)": "inactive: 14.8%"}
{"smiles": "CC1Cc2ccccc2N1S(=O)(=O)c1cccc(C(=O)Nc2cccnc2)c1", "note": "(stereo not drawn)", "growth rescue (activation)": "inactive: 29.6%"}
{"smiles": "O=C(c1cc(-c2ccccc2O)on1)N1CCCCC1", "growth rescue (activation)": "inactive: 26.6%"}
{"smiles": "CCCCOC(=O)Nc1ccc(S(=O)(=O)Nc2nccs2)cc1", "growth rescue (activation)": "inactive: 2.55%"}
{"smiles": "CCOc1ccc2nc(SCC(=O)Nc3cccc(S(=O)(=O)NC4=NCCCCC4)c3)[nH]c2c1", "growth rescue (activation)": "inactive: -7.88%"}
{"smiles": "Cc1ccc(NC(=O)CCNC(=O)c2ccc([N+](=O)[O-])cc2)cc1C", "growth rescue (activation)": "inactive: 17.3%"}
{"smiles": "Cc1ccc(CCN2CC(C(=O)NCCC(C)C)CC2=O)cc1", "note": "(stereo not drawn)", "growth rescue (activation)": "inactive: -14%"}
{"smiles": "Cc1ccc(S(=O)(=O)N2CCCCC2)cc1NS(=O)(=O)c1cccc(C(=O)O)c1", "growth rescue (activation)": "inactive: 7.12%"}
{"smiles": "O=C(CSc1ccccc1F)NC1CCS(=O)(=O)C1", "note": "(stereo not drawn)", "growth rescue (activation)": "inactive: 10.7%"}
{"smiles": "CC(C(=O)NN=C(c1ccccc1)c1ccccc1)N1CCOCC1", "note": "(stereo not drawn)", "growth rescue (activation)": "inactive: 4.76%"}
{"smiles": "C=CCN1C(=O)c2cccc3c(N4CCCCC4)ccc(c23)C1=O", "growth rescue (activation)": "inactive: 1.21%"}
{"smiles": "COc1cccc(C(=O)NC(=O)Nc2cc(C)[nH]n2)c1", "growth rescue (activation)": "inactive: 7.73%"}
